Measured values: patent publication US7592316B2, “Peptides as NS3-serine protease inhibitors of hepatitis C virus” (Schering Corporation, priority 2000, dated 2009)
*1 amine or outer side, *2 acyl side, *3 side chain or, on linkers, in order; H or OH if unused. Where a SMILES comes first, the peptide text is derived from it. [ ]: non-standard residue; d: D form. The star is where a group is joined. ξ: configuration not given here. Pro(3R,4S-CMe2) = CC1(C)[C@@H]2[C@@H](C(=O)O)NC[C@@H]21; Pro(3S,4R-CCl2) = O=C(O)[C@H]1NC[C@H]2[C@@H]1C2(Cl)Cl; Pro(3S,4R-CMe2) = CC1(C)[C@H]2[C@@H](C(=O)O)NC[C@H]21; X50 = O=C(C(=O)[*:2])C(CCCC(F)(F)F)N[*:1]; X67 = O=C(C(=O)[*:2])C(CC1CC1(F)F)N[*:1]; X96 = CCC(F)(F)CC(N[*:1])C(=O)C(=O)[*:2]; X32 = O=C(C(=O)[*:2])C(CC1CCC1)N[*:1]; X84 = O=C(C(=O)[*:2])C(CC1COC1)N[*:1]; X89 = O=C(C(=O)[*:2])C(N[*:1])C1CCCC1; X100 = O=C(C(=O)[*:2])C(N[*:1])C1CC1; X47 = O=C(C(=O)[*:2])C(N[*:1])C1CCC1; X8 = O=C(C(=O)[*:2])C(CC1CC1)N[*:1]; X6 = C=CCCC(N[*:1])C(=O)C(=O)[*:2]; Igl = N[C@H](C(=O)O)C1Cc2ccccc2C1; X4 = CCCCC(N[*:1])C(=O)C(=O)[*:2]; X2 = CCCC(N[*:1])C(=O)C(=O)[*:2]; Chg = N[C@H](C(=O)O)C1CCCCC1; Phg = N[C@H](C(=O)O)c1ccccc1; Tle = CC(C)(C)[C@H](N)C(=O)O; ξPhg = NC(C(=O)O)c1ccccc1; CO = O=C([*:1])[*:2]; NHtBu = CC(C)(C)N*; NHiPr = CC(C)N*

Biological target: HCV NS3/NS4A protease (strain 1a) (Hepatitis C virus genotype 1a, UniProt P27958)
Test: biochemical
Conditions: Table 5; HCV NS3/NS4A protease, spectrophotometric assay, 30° C., pH 6.5; read-out: Ki* Range

Row | Structure (SMILES) | Ki
1 | CCCC(NC(=O)[C@@H]1[C@@H]2[C@H](CN1C(=O)[C@@H](NC(=O)NC(C)C)C(C)(C)C)C2(C)C)C(=O)C(=O)NCC(=O)N[C@H](C(=O)N(C)C)c1ccccc1 (stereo partly drawn) ({NHiPr-CO}-[Tle][Pro(3R,4S-CMe2)][X2]G[Phg]-NMe2) | 1 to 100 nM
2 | CCCCC(NC(=O)[C@@H]1[C@H]2[C@@H](CN1C(=O)[C@@H](NC(=O)NC(C)C)C(C)(C)C)C2(C)C)C(=O)C(=O)NCC(=O)N[C@H](C(=O)N(C)C)c1ccccc1 (stereo partly drawn) ({NHiPr-CO}-[Tle][Pro(3S,4R-CMe2)][X4]G[Phg]-NMe2) | 1 to 100 nM
3 | C=CCCC(NC(=O)[C@@H]1[C@H]2[C@@H](CN1C(=O)[C@@H](NC(=O)NC(C)(C)C)C1Cc3ccccc3C1)C2(C)C)C(=O)C(=O)NCC(=O)N[C@H](C(=O)N(C)C)c1ccccc1 (stereo partly drawn) ({NHtBu-CO}-[Igl][Pro(3S,4R-CMe2)][X6]G[Phg]-NMe2) | 1 to 100 nM
4 | CCCC(NC(=O)[C@@H]1[C@@H]2[C@H](CN1C(=O)[C@@H](NC(=O)NC(C)(C)C)C(C)(C)C)C2(C)C)C(=O)C(=O)NCC(=O)N[C@H](C(=O)N(C)C)c1ccccc1 (stereo partly drawn) ({NHtBu-CO}-[Tle][Pro(3R,4S-CMe2)][X2]G[Phg]-NMe2) | 1 to 100 nM
5 | CCCCC(NC(=O)[C@@H]1[C@H]2[C@@H](CN1C(=O)[C@@H](NC(=O)NC(C)(C)C)C(C)(C)C)C2(C)C)C(=O)C(=O)NCC(=O)N[C@H](C(=O)N(C)C)c1ccccc1 (stereo partly drawn) ({NHtBu-CO}-[Tle][Pro(3S,4R-CMe2)][X4]G[Phg]-NMe2) | 1 to 100 nM

Same assay, conditions: Table 6; HCV NS3/NS4A protease, 30° C., pH 6.5; read-out: Ki*

Row | Structure (SMILES) | Ki
6 | CC(C)[C@H](NC(=O)NC(C)(C)C)C(=O)N1C[C@H]2[C@@H]([C@H]1C(=O)NC(CC1CC1)C(=O)C(=O)NCC(=O)N[C@H](C(=O)N(C)C)c1ccccc1)C2(C)C (stereo partly drawn) ({NHtBu-CO}-V[Pro(3R,4S-CMe2)][X8]G[Phg]-NMe2) | 1 to 100 nM
7 | CN(C)C(=O)[C@@H](NC(=O)CNC(=O)C(=O)C(CC1CC1)NC(=O)[C@@H]1[C@@H]2[C@H](CN1C(=O)[C@@H](NC(=O)NC(C)(C)C)C1CCCCC1)C2(C)C)c1ccccc1 (stereo partly drawn) ({NHtBu-CO}-[Chg][Pro(3R,4S-CMe2)][X8]G[Phg]-NMe2) | 1 to 100 nM
8 | CN(C)C(=O)[C@@H](NC(=O)CNC(=O)C(=O)C(CC1CC1)NC(=O)[C@@H]1[C@@H]2[C@H](CN1C(=O)[C@@H](NC(=O)NC(C)(C)C)C(C)(C)C)C2(C)C)c1ccccc1 (stereo partly drawn) ({NHtBu-CO}-[Tle][Pro(3R,4S-CMe2)][X8]G[Phg]-NMe2) | 1 to 100 nM
9 | CN(C)C(=O)[C@@H](NC(=O)CNC(=O)C(=O)C(CC1CCC1)NC(=O)[C@@H]1[C@@H]2[C@H](CN1C(=O)[C@@H](NC(=O)NC(C)(C)C)C(C)(C)C)C2(C)C)c1ccccc1 (stereo partly drawn) ({NHtBu-CO}-[Tle][Pro(3R,4S-CMe2)][X32]G[Phg]-NMe2) | 1 to 100 nM
10 | CN(C)C(=O)[C@@H](NC(=O)CNC(=O)C(=O)C(NC(=O)[C@@H]1[C@@H]2[C@H](CN1C(=O)[C@@H](NC(=O)NC(C)(C)C)C(C)(C)C)C2(C)C)C1CCC1)c1ccccc1 (stereo partly drawn) ({NHtBu-CO}-[Tle][Pro(3R,4S-CMe2)][X47]G[Phg]-NMe2) | 1 to 100 nM
11 | CN(C)C(=O)[C@@H](NC(=O)CNC(=O)C(=O)C(CCCC(F)(F)F)NC(=O)[C@@H]1[C@@H]2[C@H](CN1C(=O)[C@@H](NC(=O)NC(C)(C)C)C(C)(C)C)C2(C)C)c1ccccc1 (stereo partly drawn) ({NHtBu-CO}-[Tle][Pro(3R,4S-CMe2)][X50]G[Phg]-NMe2) | 1 to 100 nM
12 | CN(C)C(=O)C(NC(=O)CNC(=O)C(=O)C(CC1CC1(F)F)NC(=O)[C@@H]1[C@@H]2[C@H](CN1C(=O)[C@@H](NC(=O)NC(C)(C)C)C(C)(C)C)C2(C)C)c1ccccc1 (stereo partly drawn) ({NHtBu-CO}-[Tle][Pro(3R,4S-CMe2)][X67]G[ξPhg]-NMe2) | 1 to 100 nM
13 | CN(C)C(=O)[C@@H](NC(=O)CNC(=O)C(=O)C(CC1COC1)NC(=O)[C@@H]1[C@@H]2[C@H](CN1C(=O)[C@@H](NC(=O)NC(C)(C)C)C(C)(C)C)C2(C)C)c1ccccc1 (stereo partly drawn) ({NHtBu-CO}-[Tle][Pro(3R,4S-CMe2)][X84]G[Phg]-NMe2) | 1 to 100 nM
14 | CN(C)C(=O)[C@@H](NC(=O)CNC(=O)C(=O)C(NC(=O)[C@@H]1[C@@H]2[C@H](CN1C(=O)[C@@H](NC(=O)NC(C)(C)C)C(C)(C)C)C2(C)C)C1CCCC1)c1ccccc1 (stereo partly drawn) ({NHtBu-CO}-[Tle][Pro(3R,4S-CMe2)][X89]G[Phg]-NMe2) | 1 to 100 nM
15 | CCC(F)(F)CC(NC(=O)[C@@H]1[C@@H]2[C@H](CN1C(=O)[C@@H](NC(=O)NC(C)(C)C)C(C)(C)C)C2(C)C)C(=O)C(=O)NCC(=O)N[C@H](C(=O)N(C)C)c1ccccc1 (stereo partly drawn) ({NHtBu-CO}-[Tle][Pro(3R,4S-CMe2)][X96]G[Phg]-NMe2) | 1 to 100 nM
16 | CN(C)C(=O)[C@@H](NC(=O)CNC(=O)C(=O)C(NC(=O)[C@@H]1[C@@H]2[C@H](CN1C(=O)[C@@H](NC(=O)NC(C)(C)C)C(C)(C)C)C2(C)C)C1CC1)c1ccccc1 (stereo partly drawn) ({NHtBu-CO}-[Tle][Pro(3R,4S-CMe2)][X100]G[Phg]-NMe2) | 1 to 100 nM
17 | CN(C)C(=O)C(NC(=O)CNC(=O)C(=O)C(CC1CC1)NC(=O)[C@@H]1[C@@H]2[C@H](CN1C(=O)[C@@H](NC(=O)NC(C)(C)C)C(C)(C)C)C2(Cl)Cl)c1ccccc1 (stereo partly drawn) ({NHtBu-CO}-[Tle][Pro(3S,4R-CCl2)][X8]G[ξPhg]-NMe2) | 1 to 100 nM
